# Reference: PubChem BioAssay AID485344 (National Center for Advancing Translational Sciences (NCATS), 2010)
# About 6,900 (2%) of roughly 340,000 compounds were called active. No stated cut-off is given here; in the data, active means inhibition above about 30%; inactive means below that, where a call was filed. Only a part is listed here, and it is no random draw. Entries without a call were filed so in the source.
# Molecular target: D(2) dopamine receptor (Homo sapiens) (UniProt P14416)
# Test: HTS Assay for Allosteric Antagonists of the Human D2 Dopamine Receptor: Primary Screen for Antagonists; further: 0% is about no effect
# Conditions: HEK293 TREx D2 cells, calcium flux, dopamine EC80; at 10 µM; stronger effect = higher value
# How it was run: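 Antagonism is scored as inhibition of an EC80 dopamine-evoked calcium signal in a force-coupled, tetracycline-inducible HEK293 T-REx D2 line, with compound present 180 s before agonist.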
# Chain of UniProt P14416 (P14416 whole entry, looked up): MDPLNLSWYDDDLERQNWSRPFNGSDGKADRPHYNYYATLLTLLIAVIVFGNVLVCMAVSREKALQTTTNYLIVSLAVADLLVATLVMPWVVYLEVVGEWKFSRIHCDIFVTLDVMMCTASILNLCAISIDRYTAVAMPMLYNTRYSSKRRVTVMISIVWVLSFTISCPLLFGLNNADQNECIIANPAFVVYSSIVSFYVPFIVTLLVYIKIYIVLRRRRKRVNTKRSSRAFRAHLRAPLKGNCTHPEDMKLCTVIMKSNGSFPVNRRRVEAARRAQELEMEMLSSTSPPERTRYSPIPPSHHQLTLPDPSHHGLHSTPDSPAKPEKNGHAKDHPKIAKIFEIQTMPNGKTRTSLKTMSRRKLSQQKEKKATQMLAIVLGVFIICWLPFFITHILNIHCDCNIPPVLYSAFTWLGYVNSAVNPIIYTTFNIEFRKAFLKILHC
row,Structure (SMILES),inhibition
1,Cc1ccc2c(c1)cc1c(=O)n(CC(=O)NC(C)CCc3ccccc3)nc(C)n12 (stereo not given),-9.45%
2,O=C(NCc1nc2ccccc2[nH]1)C1=C[C@H](C2CC2)C[C@H](OCc2ccc(CO)cc2)O1,active: 40%
3,O=C(NCc1cccs1)c1ccc(CSc2nc3cccnc3n2Cc2ccc(F)cc2)cc1,-1.87%
4,CC1CCN(c2ccc(-c3cccc(NS(=O)(=O)c4cccs4)c3)nn2)CC1,-2.88%
5,CC(=O)c1cccc(NC(=O)Cn2c(=O)oc3cc(S(=O)(=O)NCc4ccccc4)ccc32)c1,5.82%
6,Cc1ccc(CNC(=O)c2nnn(Cc3ccc(F)cc3)c2N)cc1,4.01%
7,COc1ccc(OCc2ccc(-c3nc(C#N)c(N4CCC(C(N)=O)CC4)o3)o2)cc1,-12.8%
8,O=S(=O)(Nc1ccc(F)cc1F)c1ccc(Br)s1,18.8%
9,COc1ccc(CCNC(=O)c2cnc3sc(N4CCOCC4)nn3c2=O)cc1OC,-3.72%
10,O=C(Nc1cc(-c2nc3cc(Cl)ccc3o2)ccc1Cl)c1cccc2ccccc12,10.1%
11,COc1ccc(CCNC(=O)c2c[nH]n3c(=O)c(Cc4ccccc4Cl)c(C)nc23)cc1OC,-12.3%
12,COc1ccc(C2c3c(n(C)c4ccccc34)C(=O)N2CC(=O)Nc2ccccc2Cl)cc1 (stereo not given),-1.73%
13,O=C(c1ccc(Nc2nc3ccccc3n3nnnc23)cc1)N1CCN(c2ccc(F)cc2)CC1,-1.29%
14,COc1cc(NC(=O)c2cc3nc(-c4ccc(C)cc4)cc(C(F)(F)F)n3n2)cc(OC)c1OC,-1.37%
15,CCc1ccc(NC(=O)c2cc(S(=O)(=O)N3CCCCC3)c[nH]2)cc1,15%
16,COc1ccc(CNc2n[nH]c(-c3ccco3)n2)cc1OC,7.91%
17,O=C(NCCc1ccccc1)c1cc(-c2cccc(Cl)c2)on1,-1.35%
18,COc1cc(NC(=O)Cn2c(=O)n(Cc3ccccc3Cl)c(=O)c3cc(OC)c(OC)cc32)cc(OC)c1,11.2%
19,CCCN(C(=O)c1cc2c(=O)n(CC)c3ccccc3c2s1)c1ccccc1F,6.18%
20,CCCc1c(C(=O)OCC)nnc2c(-c3ccccc3)c(C)nn12,-10.4%
21,COc1ccc(CCN2C(=O)N(c3ccc(F)cc3)C(=O)C2CC(=O)Nc2ccccc2)cc1OC (stereo not given),-15.4%
22,O=C(Nc1nnc(SCC(=O)N2CCCCC2)s1)c1ccc(F)cc1F,active: 55.3%
23,Fc1ccc([C@@H]2Nc3ccccc3[C@@H]3C=CC[C@@H]32)cc1,6.37%
24,Cc1ccc(C)c(NC(=O)CSc2ncc3c(n2)-c2ccccc2N(Cc2ccccc2C)S3(=O)=O)c1,-2.9%

row,Structure (SMILES),inhibition
1,COc1ccc(/C=C/c2nc(C#N)c(N3CCCCCC3)o2)cc1OC,0.513%
2,Cc1nnc(N2CCC(C(=O)N3CCCCC3)CC2)c2nn(-c3ccccc3)c(C)c12,8.63%
3,COc1ccc(CNS(=O)(=O)c2ccc3c(c2)NC(=O)C(C)C(=O)N3)cc1 (stereo not given),25.8%
4,CN(CCC#N)C(=O)COC(=O)c1ccc(Cl)cc1O,active: 46.6%
5,Cc1ccc(C)c(S(=O)(=O)Nc2ccc3c(c2)CCCN3C(=O)c2cccs2)c1,18.4%
6,Cc1ccc(C)c(Nc2ncnc3c2cnn3-c2ccc(F)cc2)c1,-1.61%
7,COc1ccc(C)cc1NS(=O)(=O)c1ccc(-c2cnc(C3CC3)o2)cc1,5.65%
8,CCOC(=O)Cn1nc(C)c(NC(=O)COc2ccc(C)c(C)c2)c1C,0.117%
9,COc1ccc(-c2cc(C(F)(F)F)nc(SCCC(=O)Nc3ccc(O)cc3)n2)cc1,-7.96%
10,CCn1c2ccccc2c2nnc(N3CCN(c4ccc(OC)cc4)CC3)nc21,-8.44%
11,Cc1ccc(NC(=O)C2CCN(c3nc4ccccc4nc3C(F)(F)F)CC2)cc1C,2.1%
12,CCN(CC)C(=O)CSc1cn(CC(=O)N2CCCCCC2)c2ccccc12,10.1%
13,CCOc1ccc(-n2cc(-c3ccccc3)c3c(NCc4ccc(F)cc4)ncnc32)cc1,-11.2%
14,CCCN(CCC)S(=O)(=O)c1ccc(N2CCCCS2(=O)=O)cc1,5.93%
15,Cc1cc(C)cc(N2C(=O)CS(=O)(=O)C23C(=O)N(C)c2ccccc23)c1 (stereo not given),9%
16,O=C(c1ccco1)N1CCN(CCOCCOc2cccc3ccccc23)CC1,active: 77.4%
17,CCOC(=O)C1CCCN(Cc2cccc(Oc3ccccc3)c2)C1 (stereo not given),active: 39.5%
18,CCNC(=S)NC1CC2CCCC(C1)N2Cc1ccc(C)cc1 (stereo not given),active: 81.6%
19,COc1ccc(CNc2nc(-c3ccc(Cl)cc3)nn2C(=O)c2ccccc2)cc1,-5.37%
20,CC(C)c1ccc(NC(=O)C2Cc3ccccc3N2C(=O)c2ccccc2)cc1 (stereo not given),-1.79%
21,Cc1ccc(S(=O)(=O)C2(C(=O)Nc3ccc(C(C)C)cc3)CC2)cc1,4.76%
22,COc1ccccc1CNC(=O)c1ccc(CSc2nc3ccncc3n2Cc2ccccc2C)cc1,2.22%
23,O=C(CCCn1c(=O)[nH]c2cc(Cl)ccc2c1=O)NCCN1CCN(c2ccccc2)CC1,active: 81.3%
24,O=c1cc(N2CCOCC2)[nH]c(=O)n1-c1ccc(Cl)cc1,active: 41.1%

row,Structure (SMILES),inhibition
1,CCCCCc1ccc(-c2ccc(C(=O)Oc3ccc(C(=O)OC)cc3)cc2)nc1,0.0701%
2,COc1ccccc1Nc1c2c(nc3ccc(NC(=O)/C=C/c4cc(OC)c(OC)c(OC)c4)cc13)CCCC2,-5.57%
3,Cc1ccn2c(Nc3c(C)cccc3C)c(-c3ccc(Cl)s3)nc2c1,13.5%
4,COC(=O)CN1C(=O)C(C)(C)c2cc(S(=O)(=O)NCc3ccc(Cl)cc3)ccc21,-3.83%
5,CCCCN(CCCC)C1=C(C(=O)c2ccccc2)N(CC)S(=O)(=O)c2ccccc21,-2.79%
6,Cc1ccc(-c2nc(-c3cc4cccc(OCc5cccc(F)c5)c4oc3=O)no2)cc1,-3.29%
7,CCOc1ccc(-n2c(Cc3ccccc3)nnc2SCc2nc(-c3cccs3)no2)cc1,-7.75%
8,COc1ccccc1NS(=O)(=O)c1cccc(C(=O)NC2CCN(Cc3ccccc3)CC2)c1,active: 101%
9,O=C(Nc1ccc(Br)cc1)c1ccc(Cl)c(S(=O)(=O)N2CCCCCC2)c1,-8.38%
10,COc1cccc(NC(=O)c2sc3nc(C)c(C(=O)Nc4ccc(C)cc4C)c(-c4cccs4)c3c2N)c1,-1.57%
11,O=C(CC1Oc2ccccc2NC1=O)NCc1ccc(F)cc1 (stereo not given),3.59%
12,C=CC[n+]1c(-c2ccc(Cl)cc2Cl)csc1Nc1c(C)n(C)n(-c2ccccc2)c1=O,active: 48.9%
13,COc1ccc(CC(=O)Nc2nnc3n2CCS3)cc1,-13.9%
14,Cc1ccc(CSc2nc3ccsc3c(=O)n2CCC(C)C)cc1,-3.88%
15,CCOc1ccccc1OCCN1CCC(Cc2ccccc2)CC1,active: 64%
16,CCN1CCN(C(=O)c2ccc3c(c2)N(Cc2ccc(F)cc2)C(=O)c2ccccc2S3(=O)=O)CC1,3.65%
17,CCn1c2c(c(=O)n3ncc(C(=O)Nc4ccc(F)cc4Cl)c13)CN(Cc1ccc(OC)cc1)CC2,19.4%
18,Cc1c(NC(=O)c2ccc(Cl)cc2)cc(C(C)C)c(O)c1S(=O)(=O)c1ccccc1,-5.06%
19,CC1CCN(CCCOc2ccc(Br)cc2Cl)CC1,active: 46.8%
20,O=[N+]([O-])c1cc(CN2CCN(c3cccc(C(F)(F)F)c3)CC2)c2cccnc2c1O,active: 36.3%
21,COc1ccccc1C(=O)Nc1ccc(OCc2cc(=O)n3cccc(C)c3n2)cc1,-10.9%
22,CCc1ccc(NC(=O)c2ccc3c(O)c(S(=O)(=O)c4ccccc4)c(=O)[nH]c3c2)cc1,-2.4%
23,Cc1c(C(C)NC(=O)Nc2ccc(F)cc2F)cnn1C (stereo not given),active: 38.2%
24,Cc1cc(NC(=O)CSc2nc3c([nH]c4ccccc43)c(=O)n2-c2ccc(Cl)cc2)no1,-15.2%

row,Structure (SMILES),inhibition
1,Cc1cc(=O)n(Cc2ccccc2Cl)c2c1c(C)nn2-c1ccccc1,6.09%
2,COc1ccccc1CNC(=O)CCc1c(C)nn(-c2ccc(N3CCCC3)nn2)c1C,8.59%
3,O=C(NCC1CCN(Cc2ccccc2Cl)CC1)c1cc2ccc3cccnc3c2[nH]1,15.5%
4,CCC1CN(C(=O)N2CCC(C(=O)NCc3ccco3)CC2)c2cc(C)ccc2O1 (stereo not given),14.4%
5,COc1ccc(CCN(C)Cc2nc(Cc3ccc(OC)c(OC)c3)no2)cc1OC,active: 36.7%
6,CC(C)c1nc2ccc(C(=O)NCCCN3CCN(c4ccc(F)cc4)CC3)cc2o1,-19.1%
7,Cn1c(=O)c2c(SCC(=O)N3CCCc4ccccc43)nc(C3CC3)nc2n(C)c1=O,active: 35.2%
8,CCCCOc1ccc(CNC(=O)c2cnc3sc(N4CCC(C)CC4)nn3c2=O)cc1,7.37%
9,COc1cccc(-n2c(-c3ccc(C)cc3)cc3c2CC(C)(C)CC3=O)c1,-3.27%
10,Cc1cc(C)c2c(CC(=O)Nc3c(C(=O)c4ccc(F)cc4)oc4ccccc34)coc2c1,-8.68%
11,Cc1ccc2c(c1)CC(C)N2S(=O)(=O)c1nnc(NC(=O)CC(C)C)s1 (stereo not given),22.7%
12,CC(C)c1ccc2occ(CC(=O)Nc3cccc(C(F)(F)F)c3)c2c1,0.507%
13,COc1ccc(OC)c(NC(=O)CCc2c(C)nc3c(c(C)nn3C(C)(C)C)c2C)c1,0.281%
14,CCOC(=O)c1cc(OC(=O)c2cccc(Cl)c2)n(-c2ccccc2)n1,-0.945%
15,Cc1ccc(C)c(N2CCN(C(=O)Cn3c(C)c4cnn(-c5ccccc5)c(=O)c4c3C)CC2)c1,4.03%
16,COc1cc(NC(=O)Cn2c(=O)nc(-c3ccccc3F)c3cc(Cl)ccc32)cc(OC)c1,8.59%
17,CC1CCCCN1c1nc(-c2ccc(C(C)(C)C)cc2)nc2ccccc12 (stereo not given),-17.8%
18,CCN(C(=O)Cn1cc(C(=O)c2ccc(F)cc2)c(=O)c2ccc(C)nc21)c1cccc(C)c1,2.31%
19,COC(=O)c1ccccc1NC(=O)Cn1nc(C(F)(F)F)c2c1CCCC2,-0.759%
20,CCOc1ccc(C(=O)N2CCC(c3ccncc3)CC2)cc1,0.262%
21,CCOc1ccccc1C(=O)Nc1nnc(COC)s1,-10.5%
22,CCN(CC)S(=O)(=O)c1ccc2c(c1)c(=O)c(C(=O)NCc1ccccc1OC)cn2C,18.9%
23,Cc1ccc(C(=O)N2CCc3cc(CNC(=O)c4ccnn4C)ccc32)cc1,-3.31%
